Data: the BET-seq Pho4 binding data (Le et al. 2018)
The list shows a part of the results. The energies were worked out here from pooled read counts, against the library average; single values are noisy.

Molecular target: T1, Pho4 (S. cerevisiae) (UniProt P07270)
T1 sequence: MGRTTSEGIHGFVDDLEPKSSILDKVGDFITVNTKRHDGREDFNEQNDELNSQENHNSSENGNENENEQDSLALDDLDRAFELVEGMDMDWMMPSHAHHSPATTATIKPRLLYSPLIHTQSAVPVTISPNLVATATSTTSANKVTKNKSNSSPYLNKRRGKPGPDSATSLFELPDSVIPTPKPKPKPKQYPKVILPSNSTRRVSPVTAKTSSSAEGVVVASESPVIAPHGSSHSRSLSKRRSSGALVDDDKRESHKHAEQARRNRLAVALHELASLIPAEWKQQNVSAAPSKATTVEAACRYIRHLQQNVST
Test: relative binding free energy (BET-seq); higher = weaker binding
Conditions: reference: library average

| Sequence | relative binding free energy |
| --- | --- |
| ATATTCACGTGGCTTG | 0.11 kcal/mol |
| CTATGCACGTGGATTG | -0.11 kcal/mol |
| GTGGGCACGTGTAGTA | 0.02 kcal/mol |
| GATGTCACGTGGAGGC | 0.12 kcal/mol |
| GGATTCACGTGAAATT | 0.42 kcal/mol |
| TAAGGCACGTGTCGGG | 0.07 kcal/mol |
| TTGTTCACGTGCAGTA | 0.49 kcal/mol |
| GCTTTCACGTGTAGGT | 0.28 kcal/mol |
| GAAGTCACGTGTGCTG | 0.13 kcal/mol |
| AAAATCACGTGGGAGG | 0.17 kcal/mol |
| TGGTCCACGTGATGTA | 0.12 kcal/mol |
| GTGAGCACGTGGTAGC | -0.23 kcal/mol |
| GTGTGCACGTGGCATA | -0.02 kcal/mol |
| ATTTTCACGTGATTTG | 0.36 kcal/mol |
| TAGGTCACGTGCGCGG | -0.06 kcal/mol |
| AAAAGCACGTGGGCTG | -0.19 kcal/mol |
| TTTTGCACGTGGCGTT | -0.07 kcal/mol |
| GGATCCACGTGGGAGG | 0 kcal/mol |
| AGGGGCACGTGGGATC | -0.17 kcal/mol |
| TGTGACACGTGTAATA | 0.13 kcal/mol |
| CTGTCCACGTGGAGGG | -0.14 kcal/mol |
| ATCTTCACGTGTTGGG | 0.26 kcal/mol |
| TATATCACGTGGTGTC | -0.05 kcal/mol |

| Sequence | relative binding free energy |
| --- | --- |
| ATTGGCACGTGGGCAA | -0.26 kcal/mol |
| TAGGTCACGTGATAAT | 0.13 kcal/mol |
| TGCGACACGTGATGTG | 0.06 kcal/mol |
| TCGTACACGTGAGTGT | 0.19 kcal/mol |
| AATTTCACGTGTGTCA | 0.26 kcal/mol |
| TTGTGCACGTGTCAGG | 0.06 kcal/mol |
| GGTATCACGTGGTGGG | 0.16 kcal/mol |
| ACGGACACGTGTGGGC | 0.05 kcal/mol |
| GGGACCACGTGTAGGT | -0.01 kcal/mol |
| TTGAGCACGTGTTGGC | -0.1 kcal/mol |
| TCCTTCACGTGTAGGT | 0.28 kcal/mol |
| GTTTTCACGTGACGGT | 0.4 kcal/mol |
| AGTGGCACGTGTCCTG | -0.12 kcal/mol |
| CTGATCACGTGTTGGA | 0.11 kcal/mol |
| CTGCGCACGTGCGGTT | -0.04 kcal/mol |
| TTATACACGTGTGATT | 0.2 kcal/mol |
| CGCGTCACGTGTGGTA | 0.04 kcal/mol |
| GGACGCACGTGTGTTA | -0.04 kcal/mol |
| ATTGTCACGTGTTGCC | 0.08 kcal/mol |
| CGTTGCACGTGTGGAT | 0.05 kcal/mol |
| AGTGGCACGTGACTAG | 0 kcal/mol |
| TGCTGCACGTGAGAGG | 0.07 kcal/mol |
| AGTGCCACGTGTGTGC | -0.02 kcal/mol |

| Sequence | relative binding free energy |
| --- | --- |
| AGTAGCACGTGTAATG | -0.11 kcal/mol |
| AAATTCACGTGGGTAG | 0.17 kcal/mol |
| GTGAGCACGTGTTATG | -0.05 kcal/mol |
| GTGACCACGTGGCGGG | -0.12 kcal/mol |
| CTTTACACGTGGGATA | 0.06 kcal/mol |
| AAGATCACGTGTGGAA | 0.27 kcal/mol |
| ATCCGCACGTGGTGGT | -0.2 kcal/mol |
| TTTGGCACGTGGAAGG | -0.06 kcal/mol |
| CCTGTCACGTGGTAGG | -0.03 kcal/mol |
| AGACTCACGTGGTTGG | 0.12 kcal/mol |
| TGCGACACGTGTTAGT | 0.06 kcal/mol |
| TTTCACACGTGTGGCT | 0.17 kcal/mol |
| AAGTCCACGTGTGGTG | -0.14 kcal/mol |
| AGCGGCACGTGAGGTG | 0.15 kcal/mol |
| TGTATCACGTGTGAAC | 0.27 kcal/mol |
| ATACACACGTGGGGGT | -0.13 kcal/mol |
| CTTTTCACGTGGAAGG | 0.13 kcal/mol |
| AAGGACACGTGGGAGG | -0.03 kcal/mol |
| GAATGCACGTGTTGGG | 0.08 kcal/mol |
| GGTTGCACGTGGAGTC | 0.14 kcal/mol |
| TGTCACACGTGGGGTC | -0.08 kcal/mol |
| CAGGTCACGTGATTTT | 0.21 kcal/mol |
| GGATTCACGTGTGGGG | 0.31 kcal/mol |

| Sequence | relative binding free energy |
| --- | --- |
| GGTCACACGTGATTGT | 0.23 kcal/mol |
| TTTCGCACGTGCATGG | -0.11 kcal/mol |
| ATTGGCACGTGGCATG | -0.36 kcal/mol |
| GTGGCCACGTGGGGCA | -0.27 kcal/mol |
| TTGGTCACGTGTGACG | 0.23 kcal/mol |
| GGTTGCACGTGTTTAG | 0.08 kcal/mol |
| TGTTCCACGTGTATTG | 0.03 kcal/mol |
| TAGTCCACGTGTTATG | 0.12 kcal/mol |
| GTGATCACGTGGCGGA | 0.07 kcal/mol |
| TTTCGCACGTGGTTAG | -0.23 kcal/mol |
| TGCGGCACGTGTATAG | -0.05 kcal/mol |
| ATTAGCACGTGGAAAG | 0.1 kcal/mol |
| TAGTACACGTGCTTTT | -0.12 kcal/mol |
| AGGAGCACGTGTTTAA | -0.11 kcal/mol |
| CATATCACGTGGTATG | 0.1 kcal/mol |
| CGGTGCACGTGAATGC | 0.29 kcal/mol |
| AATGGCACGTGTCGGG | -0.09 kcal/mol |
| CTTTGCACGTGTCTGG | 0 kcal/mol |
| TTAAGCACGTGGGTAT | -0.2 kcal/mol |
| TTTGTCACGTGTGAAA | 0.18 kcal/mol |
| TTGCGCACGTGTAGCG | -0.04 kcal/mol |
| AAGTTCACGTGCTGTA | 0.34 kcal/mol |
| CTTGTCACGTGATAAG | 0.12 kcal/mol |

| Sequence | relative binding free energy |
| --- | --- |
| AAAATCACGTGCGGTT | 0.24 kcal/mol |
| TTCGGCACGTGGTATA | -0.09 kcal/mol |
| TGTGGCACGTGTTGCT | -0.05 kcal/mol |
| ATTAGCACGTGCGGTT | -0.15 kcal/mol |
| TTTCTCACGTGCGGTG | 0.21 kcal/mol |
| AGTGTCACGTGATACG | 0.21 kcal/mol |
| TATAGCACGTGATTTG | 0.12 kcal/mol |
| TAAGACACGTGGGTGG | -0.17 kcal/mol |
| TGGTTCACGTGGACGT | 0.32 kcal/mol |
| TAGGGCACGTGGTATT | -0.27 kcal/mol |
| TGTTACACGTGGCAGT | 0.03 kcal/mol |
| AGGTTCACGTGTGTTA | 0.26 kcal/mol |
| GGCTGCACGTGGTCGG | -0.11 kcal/mol |
| AGTTTCACGTGGGCGG | 0.1 kcal/mol |
| AGTATCACGTGAGGTA | 0.26 kcal/mol |
| TTTGTCACGTGAGTCC | 0.35 kcal/mol |
| GAAAGCACGTGTTGGT | -0.11 kcal/mol |
| TGAGCCACGTGGTTTT | -0.03 kcal/mol |
| CGTGTCACGTGCGCGG | -0.06 kcal/mol |
| GTTATCACGTGTATCG | 0.24 kcal/mol |
| GGTTGCACGTGAGAGG | 0.22 kcal/mol |
| ATTGACACGTGATGCG | 0.06 kcal/mol |
| GGATGCACGTGCGGGT | -0.01 kcal/mol |
